Laboratory results reported in the supplement of paper PMC3334620.
The full ranking holds about 33,000 sequences; the median of “E-score (-0.5 to 0.5)” is about -0.036, and the highest 2% start at about 0.37. This is one part of the list.

These sequences were tested against T1, Yer064c (UniProt P40041) (assay: PBM E-score (8-mer binding enrichment) (E-score (-0.5 to 0.5)); higher = stronger / more preferred TF binding; most listed sequences are background and not binding sites). Details: protein concentration: 200 nM; construct: GST-full length.
T1 sequence: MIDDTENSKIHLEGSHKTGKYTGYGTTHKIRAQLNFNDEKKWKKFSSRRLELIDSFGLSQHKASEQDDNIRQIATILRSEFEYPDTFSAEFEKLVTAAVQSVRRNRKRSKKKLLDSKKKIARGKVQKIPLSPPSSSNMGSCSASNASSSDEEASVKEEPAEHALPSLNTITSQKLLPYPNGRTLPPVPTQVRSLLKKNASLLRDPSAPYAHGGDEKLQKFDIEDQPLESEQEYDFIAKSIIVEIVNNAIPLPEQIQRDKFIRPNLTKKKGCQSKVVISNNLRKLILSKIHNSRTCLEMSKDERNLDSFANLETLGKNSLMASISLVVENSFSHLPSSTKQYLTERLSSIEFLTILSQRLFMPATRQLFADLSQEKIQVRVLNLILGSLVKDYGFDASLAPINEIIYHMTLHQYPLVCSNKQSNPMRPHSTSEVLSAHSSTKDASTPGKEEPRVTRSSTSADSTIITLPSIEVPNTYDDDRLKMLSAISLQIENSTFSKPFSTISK
How it was run: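 Universal all-10-mer Agilent arrays, fresh or stripped once, were converted to double-stranded form by primer extension. GST-tagged yeast transcription factors from PURExpress in vitro transcription/translation, full-length or DNA-binding domain only, were applied at about 100-200 nM and detected with fluorescent anti-GST. After masliner normalisation, the Universal PBM Analysis Suite scored each ungapped eight-base word together with its reverse complement by E-score.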

Row | Sequence | PBM E-score
1 | CGCGTCGA | -0.0197
2 | AAAGGCAC | -0.285
3 | ACTACTCA | 0.344
4 | ACGTACGT | -0.0674
5 | CTAAAACC | -0.0517
6 | CGGCCTAG | -0.147
7 | ACCGAGCG | -0.138
8 | ACATACGA | 0.148
9 | ATTAAAGA | 0.195
10 | ATGTTTGC | -0.249
11 | TCGTTCCA | -0.108
12 | AGTACTGG | 0.0972
13 | ACATCGTA | 0.0891
14 | GTGATGGA | 0.113
15 | TCCGTGCA | 0.023
16 | TAGTCCAA | 0.219
17 | AGGCCTGG | -0.23
18 | ACACAGCG | 0.0981
19 | CGTTCCAC | -0.25
20 | CAACCTTA | -0.0758
21 | ATAGACTC | 0.304
22 | CAGACTAC | 0.215

Row | Sequence | PBM E-score
23 | CTTAATTA | 0.173
24 | CAAGCCAA | 0.026
25 | GAGTAGCA | 0.0271
26 | ACTCACCT | 0.338
27 | AAAGAGCA | -0.0916
28 | ACAGAGTC | 0.37
29 | GTTACCAA | 0.0378
30 | CGGGACAG | -0.136
31 | AGCGCCAA | -0.105
32 | GTTGCTCA | 0.0437
33 | GAGTTTCC | -0.122
34 | CCGAGAGA | -0.0688
35 | CGGACAGC | -0.187
36 | AGTTATAT | 0.0648
37 | AACTCATA | 0.275
38 | ACGCGCGA | -0.0257
39 | GTACGAAA | 0.0773
40 | ACTCTAGG | 0.0145
41 | GAACTATA | -0.0145
42 | AGGGCCTG | -0.22
43 | ATTGCCTG | 0.0794
44 | GAACATTA | -0.197

Row | Sequence | PBM E-score
45 | AACTGATG | 0.11
46 | CACGGATG | 0.113
47 | CCATCACA | -0.108
48 | AAGCGCCC | -0.248
49 | AAAGGGTA | -0.137
50 | CAAGGGGA | 0.0449
51 | TCAAATCA | 0.278
52 | CGAGTCTA | 0.132
53 | AAAAACCT | 0.111
54 | CTGCCCGA | -0.0647
55 | AGCAACCA | 0.103
56 | CGGTGACC | 0.0215
57 | AAATCGGC | -0.314
58 | AGTATTAG | 0.0843
59 | CAATGTCC | -0.146
60 | ATCAGCCC | 0.126
61 | CCATATTC | -0.159
62 | ACCTTCGG | 0.0198
63 | CTCGGCGA | 0.0368
64 | AAAGGAAA | -0.0945
65 | ATGTAACA | 0.0112
66 | GTGTTTCA | 0.0559

Row | Sequence | PBM E-score
67 | AGGAAGGC | -0.154
68 | GCTATAAC | -0.101
69 | GCCTGAAC | -0.144
70 | CTTCAGAA | -0.124
71 | CCCCACCC | -0.0582
72 | CCCTACGC | -0.129
73 | GGGCCACC | -0.00262
74 | AAATCTAA | 0.0628
75 | AGTTTTGA | 0.19
76 | ACTCCAAC | 0.0152
77 | GCAGCAAA | -0.244
78 | GATCCTCC | -0.265
79 | ACTCTAAT | 0.248
80 | GGGATTGA | -0.0351
81 | GGGCCCAA | -0.0621
82 | CACGTGTC | 0.106
83 | CGGGGGGC | -0.258
84 | GTGCCAGA | -0.233
85 | GGTATGCA | -0.152
86 | CGGTATAC | -0.119
87 | AGAGGCCT | -0.281
88 | ATCGATGG | 0.163

Row | Sequence | PBM E-score
89 | AAGGTTGC | -0.377
90 | CAGTATGC | -0.0854
91 | TATCTCGA | 0.0149
92 | AGTGTAAA | 0.141
93 | CGCTTGGA | -0.136
94 | GCCTCACC | -0.208
95 | GGCTCGAC | 0.0352
96 | GGCGTGTA | -0.0577
97 | ATCGTAAA | 0.0659
98 | GCAACGCA | -0.188
99 | CTGGGTGA | 0.232
100 | CGGTGTCC | -0.26
101 | TGCCCTAA | -0.179
102 | AAGATAAC | 0.00791
103 | ACTTTTTA | 0.199
104 | GCAGCGCC | -0.235
105 | ACGTAGCT | -0.0184
106 | GCATAAAC | -0.0588
107 | ATAGCTCA | -0.158
108 | AACATAGT | 0.131
109 | ATCCTGTC | -0.0425
